Experimental data: PubChem BioAssay AID720542 (National Center for Advancing Translational Sciences (NCATS), 2013)
Hit rate of the full screen: of about 360,000 compounds, about 740 (0.21%) were called active. Inconclusive means that the source gave no clear call. Such entries were picked first, then a sample of the others. Calls follow the shape of the dose curve; as a rule, active = well fitted inhibition curve with a large enough effect; inconclusive = small, poorly fitted or top-dose-only effect; inactive = no such curve, though single readings can be large or run the other way. Potencies of inconclusive entries are left out as doubtful fits.

These compounds were tested on Plasmodium falciparum AMA1 (3D7) - RON2 peptide interaction (assay: qHTS for Inhibitors of AMA1-RON; Towards Development of Antimalarial Drug Lead: Primary Screen). Conditions: AlphaScreen AMA1-biotinylated RON2 peptide binding; activity change, negative = inhibition: at 58.2 µM (top of the series) unless noted.
Text: Plasmodium, the causative agent of malaria, is one of the world's deadliest parasitic diseases. Currently there is no vaccine available and there is widespread resistance to common anti-malarial drugs. This warrants novel, alternative approaches for developing improved therapy. During infection, one such essential interaction is between two parasite proteins, the apical membrane antigen1 (AMA1) that is translocated onto the merozoite surface and the rhoptry neck protein 2 (RON2), which is transferred to the red blood cells (RBC) membrane during invasion (Besteiro et.al., 2009). Recently, the Miller lab has shown that the interaction between AMA1 and RON2 is essential for junction formation of the parasite with the host cell (Srinivasan et.al., 2011). The binding of the RON2 peptide to the hydrophobic pocket in AMA triggers the formation of the moving junction which provides a firm anchor for the parasite to pull itself into the RBC using its actin-myosin motor; an irreversible step that commits the parasite for invasion. Only one AMA1 and RON2 genes exists in Plasmodium and there are no alternate pathways. Moreover, the region corresponding to RON2 peptide is conserved in all P. falciparum isolates for which sequences are available. The key residues in the AMA1 hydrophobic pocket that binds RON2 are also conserved and indicate a functional constraint governing this essential step in invasion since a short RON2 peptide (RON2L) corresponding to the binding region on AMA1 is sufficient to compete with the native RON2 protein and inhibits invasion (Tonkin et.al, 2011). Therefore, developing small molecule inhibitors of this interaction offers a promising target opening a new arena for anti-malarial therapeutics drug design.
In collaboration with the Miller lab, a quantitative High Throughput Screen using the AlphScreen technology was developed using a recombinant his-tagged AMA1 and a biotinylated RON2 peptide. This fluorescent screen was assayed against the NIH Molecular Libraries Small Molecule Repository (MLSMR). Inhibition of this protein-protein interaction is the desired outcome of this assay. However, due the limitations of this AlphaScreen assay, a large number of artifacts were observed. An AlphaScreen counterscreen was run to identify the true inhibitors, triage compound activity, and weed out false positives.
NIH Chemical Genomics Center [NCGC]
NIH Molecular Libraries Probe Centers Network [MLPCN]
Assay Submitter (PI): Louis Miller, National Institute of Allergy and Infectious Disease (NIAID)
Two microliters of his-tagged AMA1 3D7 allele protein (final concentration 25 nM) was dispensed into a 1,536-well assay plate. Small molecules and positive control peptides were pin-transferred (23 nL or 46 nL) via Kalypsys pin-tool equipped with a 1,536-pin array, resulting in final compound and peptide concentration ranges of 91.5 nM - 57.2 µM, and 15.6 nM - 2.00 µM, respectively. Unlabeled RON2 peptide or R1 peptide ([…]) that specifically binds the 3D7 AMA1 was used as a positive control that inhibited the binding of RON2L to AMA1. After 15 minutes incubation, 1 uL of biotinylated RON2 peptide (final concentration 25 nM) or buffer were dispensed and the assay plate was incubated for an additional 30 minutes at room temperature and protected from light. This was followed by an addition of 1 uL mixture of donor and acceptor beads (10 ug/mL final concentrations for each). The plates were incubated for 30 min at room temperature and read using the EnVision(R) plate reader (PerkinElmer). Maximum inhibition response was normalized to the positive control signal while no inhibition response was normalized to the DMSO treated wells.
Also: nearly all actives have a fitted effect of over 45% in size.
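For activity change, negative = inhibition in this document: 0% = vehicle wells and -100% = peptide control.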
Potency is read from the fitted curve at half-maximal effect; tags tell the direction and shape of the fitted curve.

| Structure (SMILES) | activity change, negative = inhibition | Potency |
| --- | --- | --- |
| CCOC(=O)C1=C(O)C(=O)N(C2CCCCC2)C1 | inactive: 21.5% | – |
| COc1ccccc1N1CCN(C(=O)COc2cc(C)cc(C)c2)CC1 | – | inconclusive [inhibitor, full curve, poor fit] |
| Cn1c(=O)c2c(nc(NCc3ccc4c(c3)OCO4)n2Cc2ccc(F)cc2)n(C)c1=O | – | inconclusive [inhibitor, partial curve] |
| COc1ccccc1NCC(=O)c1ccc(Cl)cc1 | – | inconclusive [inhibitor, single point] |
| O=c1c(-c2ccccc2)c(O)c2cccc3c2n1CCC3 | – | inconclusive [inhibitor, single point] |
| Cc1ccc2c(c1)Oc1ccc(NC(=O)CCl)cc1C(=O)N2 | inactive: -9.43% | – |
| O=C(Nc1ccc(-c2nc3ccccc3[nH]2)cc1)c1ccc2c(c1)OCO2 | – | inconclusive [inhibitor, partial curve] |
| Cc1ccc2c(c1)c(=O)c(Br)c(C)n2Cc1ccccc1 | inactive: 18.5% | – |
| C=CCNc1nc(NC(C)(C)CO)nc(OCC)n1 | – | inconclusive [inhibitor, full curve, poor fit] |
| CC(NC(=O)c1cccc2c1Oc1ccccc1S2)C(=O)O (stereo not given) | inactive: -7.3% | – |
| C#CCOCCOCCOCCNc1nc(N2CCN(C(=O)CCCCCCCCCCNC(=O)Cn3cc(CCCCCN)nn3)CC2)nc(N2CCN(C(=O)CCCCCCCCCCNC(=O)[C@H](CO)n3cc(CCCCCN)nn3)CC2)n1 | – | inconclusive [inhibitor, single point] |
| c1ccc(-c2[nH]c(-c3ccccc3)[n+](CC3CO3)c2-c2ccccc2)cc1 (stereo not given) | – | inconclusive [inhibitor, partial curve] |
| COc1ccc(OC)c(NC(=O)c2ccc(-c3cccs3)cc2)c1 | – | active: 28.2 µM |
| CC(=O)Nc1ccc(OCc2cn(CC(=O)c3ccc(O)cc3)nn2)cc1 | – | inconclusive [inhibitor, partial curve] |
| Cc1nc(C)c(-c2csc(NCCc3ccccc3)n2)s1 | – | inconclusive [inhibitor, partial curve, poor fit] |
| Cc1cc(Br)c(NC(=O)CN2CCCC2)c(Br)c1 | inactive: 16.7% | – |
| C=CCN(CC=C)Cc1c(O)ccc2c1oc(=O)c1ccccc12 | – | active: 21.2 µM |
| N#Cc1c(/N=C/c2cccs2)sc2c1CCC2 | – | inconclusive [inhibitor, partial curve] |
| CS(=O)(=O)N1CCN(C2C3CC4CC(C3)CC2C4)CC1 (stereo not given) | – | inconclusive [inhibitor, partial curve] |
| CCCCCCC(C)(C)c1ccc([C@@H]2C[C@H](O)CC[C@H]2CCCO)c(O)c1 | inactive: 4.7% | – |
| O=C(CCN1C(=O)COc2ccccc21)NCCCN1CCN(c2ccc(F)cc2)CC1 | – | inconclusive [inhibitor, full curve, poor fit] |
| CC1CC(C)CN(C(=O)COC(=O)CCCN2C(=O)c3cccc4cccc(c34)C2=O)C1 (stereo not given) | inactive: 6.3% | – |
| CCCOc1ccc(Cc2nn3c(=O)/c(=C/c4ccco4)sc3nc2=O)cc1 | – | inconclusive [inhibitor, partial curve] |

| Structure (SMILES) | activity change, negative = inhibition | Potency |
| --- | --- | --- |
| CCN(c1ccc(NC(=O)COC(=O)c2cc3ccccc3oc2=O)cc1)C(C)C | – | inconclusive [inhibitor, partial curve] |
| Cc1cccc2c1N(CCCOc1ccc(C(C)(C)C)cc1)C(=O)C2=O | – | inconclusive [inhibitor, partial curve] |
| COc1cccc(N(C(=O)CNC(=O)c2ccco2)C(C(=O)NC2CCCC2)c2cccnc2)c1 (stereo not given) | inactive: -5.66% | – |
| COc1cccc(CNc2ccc(N3CCC(C)CC3)cc2)c1OC | – | inconclusive [inhibitor, partial curve] |
| CSc1ccc(-c2nc3cnccn3c2Nc2ccc3c(c2)OCO3)cc1 | – | inconclusive [inhibitor, partial curve] |
| O=C(CCN1C(=O)c2ccccc2C1=O)NCc1ccco1 | – | inconclusive [inhibitor, single point] |
| CC1CCCN(c2ccc(C(=O)N3CCC4(CC3)OCCO4)cc2[N+](=O)[O-])C1 (stereo not given) | – | inconclusive [inhibitor, single point] |
| CCN(CC)C(=O)[C@H]1C[C@H](CC(=O)NCC23CC4CC(CC(C4)C2)C3)C(=O)N2CCc3c([nH]c4ccc(Cl)cc34)[C@]12C | inactive: -6.53% | – |
| CCc1ccc(CN2CCN(Cc3cc(Br)ccc3O)CC2)cc1 | – | inconclusive [inhibitor, partial curve] |
| OCc1ccc2c(c1)c(-c1ccc3c(c1)OCCO3)c(-c1ccccc1)n2-c1ccccc1 | – | inconclusive [inhibitor, single point] |
| COCc1nc2ccccc2n1Cc1ccccc1 | inactive: 4.93% | – |
| CN1CCN(Cc2ccc(N)cc2)CC1 | inactive: -6.55% | – |
| O=C(O)/C=C\C(=O)Nc1ccccc1N1CCN(c2ccccc2)CC1 | inactive: -12.4% | – |
| Cc1ccc(NC(=S)Nc2ccccn2)cc1C | inactive: 47.8% | – |
| O=C(NNc1ccccc1)Nc1cc(Cl)ccc1Cl | – | inconclusive [inhibitor, partial curve] |
| O=C(O)Cc1ccc(O)c(O)c1 | – | inconclusive [inhibitor, partial curve] |
| CN1CCN(C(=O)C2CCCN(S(=O)(=O)c3ccccc3)C2)CC1 (stereo not given) | – | inconclusive [inhibitor, single point] |
| CSc1ccccc1NC(=S)NCc1ccc(Cl)cc1 | inactive: 82.4% | – |
| O=C(C1=C[C@@H](C2CCCCC2)C[C@@H](OCc2ccc(CO)cc2)O1)N1CCN(Cc2ccccc2)CC1 | – | inconclusive [inhibitor, single point] |
| C=CCOc1ccccc1CNc1ccc2[nH]c(=O)[nH]c2c1 | – | inconclusive [inhibitor, single point] |
| Cc1cc(N=Nc2ccccc2C)ccc1N | – | active: 11.2 µM |
| CCN1C(=O)C(CC(=O)Nc2ccc(OC)cc2)N(CCCN2CCN(c3ccc(F)cc3)CC2)C1=S (stereo not given) | – | inconclusive [inhibitor, partial curve, poor fit] |
